# Reference: paper PMC11995724, “Antibiotic target discovery by integrated phenotypic and activity-based profiling of electrophilic fragments” (Cell chemical biology, 2025)
# The whole screen tested about 3,200 compounds, of which about 110 (3.4%) showed an effect of 50% or more. Some of the results follow.
# System: T1, V. cholerae SAD30
# T1 construct: SAD30
# Design: species or system S. aureus MSSA476 (TSB) or V. cholerae SAD30 (LB); 384-well bacterial growth screen at 25 uM, OD600 relative to DMSO control
# Settings: relative growth, OD600, LB; 25 µM; inhibitor
row,Compound,% of control remaining [%]
1,"CC(Cl)C(=O)Nc1cc(Cl)ccc1Cl (stereo not drawn) [6-A15, 2-chloro-N-(2,5-dichlorophenyl)propanamide]",87.5154
2,"CC(Cl)C(=O)N1CCN(c2nc3ccccc3o2)C(C)C1 (stereo not drawn) [7-K22, 1-[4-(1,3-benzoxazol-2-yl)-3-methylpiperazin-1-yl]-2-chloropropan-1-one]",84.7183
3,"O=C(CCl)NC1COc2ncccc21 (stereo not drawn) [7-F10, 2-chloro-N-{2H,3H-furo[2,3-b]pyridin-3-yl}acetamide]",83.7932
4,"CC(Cl)C(=O)N1CCN(Cc2nnnn2-c2ccccc2)CC1 (stereo not drawn) [7-N05, 2-chloro-1-{4-[(1-phenyl-1H-1,2,3,4-tetrazol-5-yl)methyl]piperazin-1-yl}propan-1-one]",83.5288
5,"CCOc1ccc(S(=O)(=O)N2CCN(C(=O)CCl)CC2)cc1 [4-P15, 2-chloro-1-[4-(4-ethoxybenzenesulfonyl)piperazin-1-yl]ethan-1-one]",118.352
6,"CC(Cl)C(=O)N1CCCN(c2ccc(-c3ccccc3)nn2)CC1 (stereo not drawn) [7-L15, 2-chloro-1-[4-(6-phenylpyridazin-3-yl)-1,4-diazepan-1-yl]propan-1-one]",80.3568
7,"C=CC(=O)Nc1ccccc1-c1nnnn1C [1-M05, N-[2-(1-methyl-1H-1,2,3,4-tetrazol-5-yl)phenyl]prop-2-enamide]",92.8251
8,"O=C(CCl)Cc1ccc(F)cc1Cl [10-E19, 1-chloro-3-(2-chloro-4-fluorophenyl)propan-2-one]",21.0403
9,"N#CC(=Cc1c(C2CC2)nc2sccn12)C(=O)NC1CCCCC1 [9-H18, 2-cyano-N-cyclohexyl-3-{6-cyclopropylimidazo[2,1-b][1,3]thiazol-5-yl}prop-2-enamide]",64.7859
10,"CC(Cl)C(=O)N(C)Cc1ccccc1 (stereo not drawn) [6-I13, N-benzyl-2-chloro-N-methylpropanamide]",78.87
11,"C=CC(=O)NC(Cn1cnc2ccccc21)c1ccc(F)cc1 (stereo not drawn) [2-C11, N-[2-(1H-1,3-benzodiazol-1-yl)-1-(4-fluorophenyl)ethyl]prop-2-enamide]",87.108
12,"CC(Cl)C(=O)NC1COCc2ccccc21 (stereo not drawn) [6-B05, 2-chloro-N-(3,4-dihydro-1H-2-benzopyran-4-yl)propanamide]",97.9809
13,"CC(Cl)C(=O)N(CCC#N)c1ccccc1 (stereo not drawn) [6-M18, 2-chloro-N-(2-cyanoethyl)-N-phenylpropanamide]",87.9704
14,"C=CC(=O)N1CCC(C(=O)NCC2COC3(CCCC3)O2)CC1 (stereo not drawn) [3-A16, N-({1,4-dioxaspiro[4.4]nonan-2-yl}methyl)-1-(prop-2-enoyl)piperidine-4-carboxamide]",114.144
15,"COc1cc(OC)c(C(=O)CCl)c(OC)c1 [10-L04, 2-chloro-1-(2,4,6-trimethoxyphenyl)ethan-1-one]",98.344
16,"C=CC(=O)N1CCC(C(=O)N2Cc3ccccc3C[C@H]2C(N)=O)CC1 [3-C19, (3S)-2-[1-(prop-2-enoyl)piperidine-4-carbonyl]-1,2,3,4-tetrahydroisoquinoline-3-carboxamide]",110.263
17,"C=CC(=O)NCCC(=O)N1CCc2ncncc2C1 [2-C04, N-(3-oxo-3-{5H,6H,7H,8H-pyrido[4,3-d]pyrimidin-6-yl}propyl)prop-2-enamide]",109.804
18,"CC1CC(c2ccccc2F)N(C(=O)C(C)Cl)C1 (stereo not drawn) [6-H18, 2-chloro-1-[2-(2-fluorophenyl)-4-methylpyrrolidin-1-yl]propan-1-one]",81.6002
19,"C=CC(=O)NCc1noc2c1CCCC2 [3-B20, N-[(4,5,6,7-tetrahydro-1,2-benzoxazol-3-yl)methyl]prop-2-enamide]",112.38
20,"C=CC(=O)N1CCC(C(=O)N2CCn3ccnc32)CC1 [2-I04, 1-(4-{1H,2H,3H-[1,3]diazolo[1,2-a]imidazole-1-carbonyl}piperidin-1-yl)prop-2-en-1-one]",97.6069
21,"C=CC(=O)Nc1ccc(F)c(C(=O)CC)c1 [1-I22, N-(4-fluoro-3-propanoylphenyl)prop-2-enamide]",101.495
22,"CC(NC(=O)CCl)C(c1ccccc1Cl)n1cccn1 (stereo not drawn) [7-D20, 2-chloro-N-[1-(2-chlorophenyl)-1-(1H-pyrazol-1-yl)propan-2-yl]acetamide]",71.5017
23,"CSc1ccccc1CC(C)NC(=O)CCl (stereo not drawn) [7-D14, 2-chloro-N-{1-[2-(methylsulfanyl)phenyl]propan-2-yl}acetamide]",77.1849

row,Compound,% of control remaining [%]
1,"CS(=O)(=O)NCCc1ccc(C(=O)CCl)cc1 [10-D06, N-{2-[4-(2-chloroacetyl)phenyl]ethyl}methanesulfonamide]",99.5909
2,"Cc1ccc(NC(=O)C(C)Cl)cc1S(=O)(=O)N1CCOCC1 (stereo not drawn) [5-D22, 2-chloro-N-[4-methyl-3-(morpholine-4-sulfonyl)phenyl]propanamide]",107.429
3,"Cc1csc(-n2c(C)cc(C(=O)CCl)c2C)n1 [10-G05, 2-chloro-1-[2,5-dimethyl-1-(4-methyl-1,3-thiazol-2-yl)-1H-pyrrol-3-yl]ethan-1-one]",103.955
4,"Cc1ccccc1N1C(=O)CSC1=C(C#N)C(=O)N1CCCCC1 [8-B12, 2-[3-(2-methylphenyl)-4-oxo-1,3-thiazolidin-2-ylidene]-3-oxo-3-(piperidin-1-yl)propanenitrile]",78.1101
5,"CCN(Cc1ccc(OC)c(F)c1)C(=O)CCl [5-D09, 2-chloro-N-ethyl-N-[(3-fluoro-4-methoxyphenyl)methyl]acetamide]",96.501
6,"C=CC(=O)N1CCc2c(nnn2CCOC)C1 [1-N05, 1-[1-(2-methoxyethyl)-1H,4H,5H,6H,7H-[1,2,3]triazolo[4,5-c]pyridin-5-yl]prop-2-en-1-one]",93.5725
7,"Cc1n[nH]c(C)c1C=C(C#N)C(=O)Nc1ccc(SC(F)F)cc1 [8-E08, 2-cyano-N-{4-[(difluoromethyl)sulfanyl]phenyl}-3-(3,5-dimethyl-1H-pyrazol-4-yl)prop-2-enamide]",75.2549
8,"Cc1nn(Cc2ccccc2)c(C)c1CNC(=O)CCl [4-O11, N-[(1-benzyl-3,5-dimethyl-1H-pyrazol-4-yl)methyl]-2-chloroacetamide]",102.998
9,"CC(Cl)C(=O)N[C@H]1CN(Cc2ccccc2)C[C@@H]1c1ccccc1 (mixture of isomers) [7-N09, rac-N-[(3R,4S)-1-benzyl-4-phenylpyrrolidin-3-yl]-2-chloropropanamide]",58.6816
10,"Cc1nc2ccccc2n(CCCNC(=O)C(C)Cl)c1=O (stereo not drawn) [7-O21, 2-chloro-N-[3-(3-methyl-2-oxo-1,2-dihydroquinoxalin-1-yl)propyl]propanamide]",83.7932
11,"CC(Cl)C(=O)NCCCN1CCc2ccccc2C1 (stereo not drawn) [7-M11, 2-chloro-N-[3-(1,2,3,4-tetrahydroisoquinolin-2-yl)propyl]propanamide]",76.9205
12,"N#CC(=Cc1ccc(O)cc1)C(=O)Nc1cc(Cl)ccc1Cl [9-F03, 2-cyano-N-(2,5-dichlorophenyl)-3-(4-hydroxyphenyl)prop-2-enamide]",117.947
13,"CC(=O)c1cccc(NC(=O)C(C)Cl)c1 (stereo not drawn) [6-K22, N-(3-acetylphenyl)-2-chloropropanamide]",100.863
14,"CC(NC(=O)CCl)c1nnc(-c2ccccc2F)s1 (stereo not drawn) [7-L21, 2-chloro-N-{1-[5-(2-fluorophenyl)-1,3,4-thiadiazol-2-yl]ethyl}acetamide]",86.7008
15,"Nc1c(C(=O)CCl)c(=O)[nH]c(=O)n1Cc1ccccc1 [10-J18, 6-amino-1-benzyl-5-(2-chloroacetyl)-1,2,3,4-tetrahydropyrimidine-2,4-dione]",97.2531
16,"CCOC(=O)c1c(C)[nH]c(C)c1C(=O)CCl [10-C10, ethyl 4-(2-chloroacetyl)-2,5-dimethyl-1H-pyrrole-3-carboxylate]",97.8765
17,"O=C(CCl)NCC1(c2ccccc2)CCOCC1 [6-I07, 2-chloro-N-[(4-phenyloxan-4-yl)methyl]acetamide]",91.7623
18,"C=CC(=O)Nc1nn(C2CCCC2)c(C)c1Cl [1-O06, N-(4-chloro-1-cyclopentyl-5-methyl-1H-pyrazol-3-yl)prop-2-enamide]",86.6966
19,"C=CC(=O)NCCc1c(C)oc2ccccc12 [1-N07, N-[2-(2-methyl-1-benzofuran-3-yl)ethyl]prop-2-enamide]",82.6607
20,"CC(Cl)C(=O)NC(C)c1nc(Cc2ccccc2)no1 (stereo not drawn) [7-B19, N-[1-(3-benzyl-1,2,4-oxadiazol-5-yl)ethyl]-2-chloropropanamide]",82.868
21,"C=CC(=O)N(Cc1ccc(OC)cc1)[C@@H]1CCCC[C@H]1O [2-M05, N-[(1R,2R)-2-hydroxycyclohexyl]-N-[(4-methoxyphenyl)methyl]prop-2-enamide]",86.0272
22,"CC(Cl)C(=O)NCc1noc2ccccc12 (stereo not drawn) [7-I14, N-[(1,2-benzoxazol-3-yl)methyl]-2-chloropropanamide]",66.2151
